Consider 6 molecules from patent publication US20130123253A1, “MODULATORS OF CENTRAL NERVOUS SYSTEM NEUROTRANSMITTERS” (HUMAN BIOMOLECULAR RESEARCH INSTITUTE, priority 2004, published 2013).

Read-outs that look alike come from different tables or passages of the source.

In assay [1] the target is T1, human norepinephrine transporter (hNET) (Homo sapiens, UniProt P23975). Kind of assay: Inhibition of radioligand binding in HEK-hNET cell membranes. Also on record: expressed in transfected cells.
T1 sequence (P23975 whole entry): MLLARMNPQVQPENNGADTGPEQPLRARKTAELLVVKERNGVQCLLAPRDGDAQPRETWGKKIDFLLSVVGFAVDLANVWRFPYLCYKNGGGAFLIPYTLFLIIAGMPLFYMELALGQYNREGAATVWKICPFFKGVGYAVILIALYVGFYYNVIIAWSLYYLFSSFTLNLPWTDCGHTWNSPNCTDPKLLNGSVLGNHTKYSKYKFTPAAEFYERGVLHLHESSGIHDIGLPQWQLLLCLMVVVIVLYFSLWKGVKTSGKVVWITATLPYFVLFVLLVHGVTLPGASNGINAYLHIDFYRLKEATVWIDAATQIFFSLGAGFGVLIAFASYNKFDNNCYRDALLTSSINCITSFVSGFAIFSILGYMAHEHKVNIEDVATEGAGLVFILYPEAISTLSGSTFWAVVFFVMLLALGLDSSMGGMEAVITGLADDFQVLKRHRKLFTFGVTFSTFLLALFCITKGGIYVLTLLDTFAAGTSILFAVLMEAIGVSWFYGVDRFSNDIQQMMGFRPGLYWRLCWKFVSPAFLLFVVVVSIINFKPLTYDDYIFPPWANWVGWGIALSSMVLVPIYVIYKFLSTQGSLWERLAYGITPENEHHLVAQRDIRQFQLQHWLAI
The target of assay [2] is T1, human norepinephrine transporter (hNET). The following applies: for IC50: read-out: Reuptake (IC50, nM) hNET.
Assay [3] addresses T2, human dopamine transporter (hDAT) (Homo sapiens, UniProt Q01959). To be noted: for IC50: read-out: Reuptake (IC50, nM) hDAT.
T2 sequence (Q01959 whole entry): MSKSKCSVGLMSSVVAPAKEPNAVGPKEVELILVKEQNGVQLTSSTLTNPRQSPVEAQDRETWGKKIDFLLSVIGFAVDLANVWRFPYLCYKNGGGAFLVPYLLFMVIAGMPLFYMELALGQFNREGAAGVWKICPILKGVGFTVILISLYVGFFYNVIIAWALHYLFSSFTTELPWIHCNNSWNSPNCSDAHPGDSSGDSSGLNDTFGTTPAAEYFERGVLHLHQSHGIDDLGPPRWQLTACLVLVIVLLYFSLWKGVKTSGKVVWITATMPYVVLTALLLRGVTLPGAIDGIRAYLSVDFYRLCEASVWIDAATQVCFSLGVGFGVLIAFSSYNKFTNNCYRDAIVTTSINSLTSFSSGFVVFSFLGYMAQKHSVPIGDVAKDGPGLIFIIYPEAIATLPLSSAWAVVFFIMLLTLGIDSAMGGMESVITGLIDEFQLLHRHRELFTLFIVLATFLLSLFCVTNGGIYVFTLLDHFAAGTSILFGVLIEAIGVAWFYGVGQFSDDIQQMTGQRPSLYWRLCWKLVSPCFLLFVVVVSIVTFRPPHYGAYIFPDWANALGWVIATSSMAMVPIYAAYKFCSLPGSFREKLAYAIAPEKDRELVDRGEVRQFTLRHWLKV
The target of assay [4] is T2, human dopamine transporter (hDAT). Description: Inhibition of [125I]RTI-55 binding in HEK-hDAT cell membranes. Also on record: expressed in transfected cells.
The mark [5] stands for this setting: Table 9, mean ± SEM, read-out: Binding (Ki, nM) hNET.

For the molecule `CC(C)(C)c1ccc(C2CCC(CN)O2)cc1` (centres unmarked) [Compound 15k, 2-Aminomethyl-5-(p-t-butylphenyl)tetrahydrofuran], in assay [1] (setting [5]), the Ki worked out at 4540 ± 266 nM. For the same molecule, the IC50 in assay [2] (Table 9, mean ± SEM) was 2320 ± 801 nM; in assay [3] (Table 9, mean ± SEM) it was 4300 ± 919 nM.
Take `NCC1CCC(CCc2ccccc2)O1` (centres unmarked) [Compound 15d, 2-(Aminomethyl)-5-phenethyltetrahydrofuran]: the Ki in assay [1] (setting [5]) is 2740 ± 480 nM; in assay [4] (Table 9, mean ± SEM, read-out: Binding (Ki, nM) hDAT), 1500 ± 278 nM. Also, the half-maximal inhibitory concentration (IC50) in assay [2] (Table 9, mean ± SEM) came out at 360 ± 14.8 nM; in assay [3] (Table 9, mean ± SEM), 513 ± 68 nM.
Regarding `COc1ccc(C2CCC(CN)O2)cc1` (centres unmarked) [Compound 15j, 2-Aminomethyl-5-(p-methoxyphenyl)tetrahydrofuran], the Ki in assay [1] (setting [5]) worked out at 2010 ± 67 nM. For the same molecule, the IC50 in assay [2] (Table 9, mean ± SEM) came to 92 ± 29.5 nM; in assay [3] (Table 9, mean ± SEM), 668 ± 215 nM.
Turning to `NCC[C@@H](Oc1ccc(C(F)(F)F)cc1)c1ccccc1` [22(R), (R)-norfluoxetine, reference compound], the Ki in assay [1] (read-out: Binding (Ki, nM) hNET) is 7340 ± 1390 nM. Besides, the IC50 in assay [2] came to 2000 ± 518 nM; in assay [3] (Table 17, mean ± S.E.M.), 7130 ± 891 nM.
`Cc1cc(CCC2CCC(CCN)O2)ccc1F` (centres unmarked) [Compound 17c, 2-Aminoethyl-5-(4′-fluoro-3′-methylphenethyl)tetrahydrofuran]: in assay [1] (setting [5]), the Ki amounted to 882 ± 22 nM. Further, the IC50 in assay [2] (Table 9, mean ± SEM) was 374 ± 110 nM; in assay [3] (Table 9, mean ± SEM) it was 509 ± 136 nM.
Consider “N,N-bis(5′- (1″- naphth- ethyl)- 2′-tetra- hydro- furylethyl) amine”, for which the Ki in assay [1] (Table 2, read-out: Binding (ki, nM) hNET) was 4340 nM; in assay [2] (read-out: Reuptake (kup, nM) hNET, Table 2) it was above 10000 nM; in assay [4] (Table 2, read-out: Binding (ki, nM) hDAT) it was 1080 nM; in assay [3] (read-out: Reuptake (kup, nM) hDAT, Table 2) it was above 10000 nM.
